In PMC7956155, “Design and Evaluation of Peptide Dual-Agonists of GLP-1 and NPY2 Receptors for Glucoregulation and Weight Loss with Mitigated Nausea and Emesis” (Journal of Medicinal Chemistry, 2021):
pEC50: −log10 of the molar value. Square brackets hold non-standard residues; d marks the D form. Ends that are not written are not given here.

Key:
[1] = target: T1, rat GLP-1R (Rattus norvegicus, UniProt P32301); assay: cAMP FRET reporter (H188) agonism assay at rat GLP-1R in HEK293 C24 cells; type: cell-based
T1 sequence (P32301 22-463): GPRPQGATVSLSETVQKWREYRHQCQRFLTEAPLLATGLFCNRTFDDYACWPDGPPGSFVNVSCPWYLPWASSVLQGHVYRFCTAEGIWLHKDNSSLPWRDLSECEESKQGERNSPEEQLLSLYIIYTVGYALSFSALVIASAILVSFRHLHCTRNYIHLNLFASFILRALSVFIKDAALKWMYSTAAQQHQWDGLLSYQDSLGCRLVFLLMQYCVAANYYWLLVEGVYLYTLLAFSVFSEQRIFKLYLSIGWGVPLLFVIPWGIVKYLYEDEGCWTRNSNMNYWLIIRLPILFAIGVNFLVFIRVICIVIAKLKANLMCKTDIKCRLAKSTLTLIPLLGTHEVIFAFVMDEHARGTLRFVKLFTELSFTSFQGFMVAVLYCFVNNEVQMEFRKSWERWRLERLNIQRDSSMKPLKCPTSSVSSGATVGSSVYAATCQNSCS

[2] = target: T2, human Y2-R (Homo sapiens, UniProt P49146); assay: cAMP FRET reporter (H188) assay at Y2-R: counteraction of adenosine-stimulated cAMP in HEK293 cells; type: cell-based
T2 sequence (P49146 1-381): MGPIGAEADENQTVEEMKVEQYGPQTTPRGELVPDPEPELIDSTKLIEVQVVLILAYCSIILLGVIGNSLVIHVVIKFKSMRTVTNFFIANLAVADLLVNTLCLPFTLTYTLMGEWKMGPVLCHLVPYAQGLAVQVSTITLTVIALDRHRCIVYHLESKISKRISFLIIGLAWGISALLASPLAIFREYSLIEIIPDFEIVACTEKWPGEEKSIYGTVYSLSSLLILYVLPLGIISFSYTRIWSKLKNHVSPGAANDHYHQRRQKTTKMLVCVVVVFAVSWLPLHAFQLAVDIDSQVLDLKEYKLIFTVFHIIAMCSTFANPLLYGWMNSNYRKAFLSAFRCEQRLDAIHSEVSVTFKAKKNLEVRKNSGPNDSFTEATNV

With `CC[C@H](C)[C@H](NC(=O)[C@H](Cc1ccccc1)NC(=O)[C@H](CCC(=O)O)NC(=O)[C@H](CCCNC(=N)N)NC(=O)[C@@H](NC(=O)[C@H](C)NC(=O)[C@H](CCC(=O)O)NC(=O)[C@H](CCC(=O)O)NC(=O)[C@H](CCC(=O)O)NC(=O)[C@H](CC(C)C)NC(=O)[C@H](Cc1ccc(O)cc1)NC(=O)[C@H](CCCCN=[N+]=[N-])NC(=O)[C@H](CO)NC(=O)[C@H](CC(C)C)NC(=O)[C@H](CC(=O)O)NC(=O)[C@H](CO)NC(=O)[C@@H](NC(=O)[C@H](Cc1ccccc1)NC(=O)[C@@H](NC(=O)CNC(=O)[C@H](CCC(N)=O)NC(=O)[C@@H](CO)NC(=O)[C@@H](N)Cc1c[nH]cn1)[C@@H](C)O)[C@@H](C)O)C(C)C)C(=O)N[C@@H](C)C(=O)N[C@@H](Cc1c[nH]c2ccccc12)C(=O)N[C@@H](CC(C)C)C(=O)N[C@@H](CCCCN)C(=O)N[C@@H](CC(N)=O)C(=O)NCC(=O)NCC(=O)N1CCC[C@H]1C(=O)N[C@@H](CO)C(=O)N[C@@H](CCCNC(=N)N)C(=O)N[C@@H](Cc1c[nH]cn1)C(=O)N[C@@H](Cc1ccc(O)cc1)C(=O)N[C@@H](CC(C)C)C(=O)N[C@@H](CC(N)=O)C(=O)N[C@@H](CC(C)C)C(=O)N[C@H](C(=O)N[C@H](C(=O)N[C@@H](CCCNC(=N)N)C(=O)N[C@@H](CCC(N)=O)C(=O)N[C@@H](CCCNC(=N)N)C(=O)N[C@@H](Cc1ccc(O)cc1)C(N)=O)[C@@H](C)O)C(C)C` [GEP44] as the compound, how does the pEC50 ([1]; HEK293 C24 H188 cells transfected with rat GLP-1R, cAMP FRET) read?
Its pEC50 is 9.32.

How did the “block of GEP44 agonism at Y2-R by antagonist” value [2] turn out when `N=C(N)NCCC[C@H](NC(=O)CC1(CC(=O)N2CCN(C3c4ccccc4NC(=O)c4ccccc43)CC2)CCCC1)C(=O)NCCn1c(=O)n(-c2ccccc2)n(-c2ccccc2)c1=O` (stereo partly drawn) [BIIE0246, reference compound] was run?
The value was “blocked GEP44 agonism”.

Which “Hill Coeff., dose-response at rat GLP-1R (Figure S10)” value [1] does the source give for “H[dS]QGTFTSDLSKQMEEEAVRLFIEWLKNGGPSRHYLNLVTRQRY-NH2 [EP44]” here?
Its value is 0.788.
